# Results published in article PMC4336329 (PLoS ONE, 2015).
# The whole screen tested about 310,000 compounds, of which about 2,200 (0.71%) showed an effect of 50% or more. The effect is printed as a negative number. The list shows a part of the results.
# Target: human ether-à-go-go-related gene (hERG) potassium channel (human, UniProt Q12809)
# Assay: primary screen, population patch clamp on CHO cells stably expressing hERG
# human ether-à-go-go-related gene (hERG) potassium channel, sequence (Q12809 whole entry, looked up): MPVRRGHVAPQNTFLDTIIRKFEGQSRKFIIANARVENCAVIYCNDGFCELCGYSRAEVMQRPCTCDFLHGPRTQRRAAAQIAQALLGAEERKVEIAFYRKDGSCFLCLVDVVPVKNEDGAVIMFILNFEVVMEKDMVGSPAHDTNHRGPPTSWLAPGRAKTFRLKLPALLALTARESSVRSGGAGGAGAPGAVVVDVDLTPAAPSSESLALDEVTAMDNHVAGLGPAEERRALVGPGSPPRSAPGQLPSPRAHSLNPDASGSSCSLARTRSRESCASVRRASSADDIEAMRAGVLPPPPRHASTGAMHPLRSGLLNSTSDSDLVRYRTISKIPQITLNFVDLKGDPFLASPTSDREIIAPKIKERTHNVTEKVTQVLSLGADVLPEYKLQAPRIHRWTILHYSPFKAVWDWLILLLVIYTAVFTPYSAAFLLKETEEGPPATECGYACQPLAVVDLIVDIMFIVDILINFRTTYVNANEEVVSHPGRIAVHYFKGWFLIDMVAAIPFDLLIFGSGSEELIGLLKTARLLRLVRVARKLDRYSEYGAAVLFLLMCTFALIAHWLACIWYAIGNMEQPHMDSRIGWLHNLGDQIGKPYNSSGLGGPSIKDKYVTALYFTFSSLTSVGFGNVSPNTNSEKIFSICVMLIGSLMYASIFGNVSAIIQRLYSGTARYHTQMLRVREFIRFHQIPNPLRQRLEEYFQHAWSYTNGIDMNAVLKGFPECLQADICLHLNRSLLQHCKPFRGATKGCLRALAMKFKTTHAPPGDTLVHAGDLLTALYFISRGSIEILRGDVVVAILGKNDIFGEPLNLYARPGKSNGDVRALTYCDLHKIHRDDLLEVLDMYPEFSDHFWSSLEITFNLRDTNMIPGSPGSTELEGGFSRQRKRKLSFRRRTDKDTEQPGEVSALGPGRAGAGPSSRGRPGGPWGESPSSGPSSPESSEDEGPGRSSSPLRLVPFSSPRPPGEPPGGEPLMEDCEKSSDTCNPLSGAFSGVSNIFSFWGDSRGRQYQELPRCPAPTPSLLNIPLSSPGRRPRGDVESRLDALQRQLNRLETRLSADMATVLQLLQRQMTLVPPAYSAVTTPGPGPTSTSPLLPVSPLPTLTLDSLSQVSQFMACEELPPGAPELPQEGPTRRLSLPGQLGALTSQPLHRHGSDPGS
row,SMILES,"hERG current change (%, negative = inhibition) at 1uM [%]"
1,C#Cc1cccc(NC(=O)c2ccc(Cl)cc2Cl)c1,8.52
2,Cc1ccc(-c2nn3c(C)nnc3s2)cc1N,-10.5
3,Clc1ccc(CN2CCN(c3ncnc4scc(-c5cccs5)c34)CC2)cc1,-1.8
4,CCN(CC)c1ccc(N=Cc2c(O)n(CCc3ccc(OC)c(OC)c3)c(=O)[nH]c2=O)cc1,16.4
5,CCn1c(SCC(=O)Nc2ccc(N(C)C)cc2)nnc1-c1cccc(C)c1,1.54
6,CCCCCOc1ccc(C(=O)Nc2ccc(S(=O)(=O)Nc3cc(C)on3)cc2)cc1,17
7,O=C(N/N=C/c1c(O)ccc2ccccc12)c1cccc(C(F)(F)F)c1,13.9
8,O=C(NCCc1ccccc1)C1CCN(S(=O)(=O)c2ccc(Br)s2)CC1,1.98
9,O=C(O)CC1(CC(=O)Nc2ccc(Cl)cc2C(=O)c2ccccc2)CCCC1,11
10,CCCn1c(O)c(CN2CCCCC2)c(C)c(C#N)c1=O,12.3
11,CC(=O)c1cccc(NC(=O)c2cc(-c3ccncc3)nc3ccccc23)c1,6.32
12,CC(CN1CCCC1)OC(=O)c1ccc(Cl)cc1Cl.Cl (centres unmarked),7.55
13,O=C(NCc1ccccc1Cl)C(=O)NCC1OCCCN1S(=O)(=O)c1cccs1 (centres unmarked),6.57
14,C[C@H](NC(=O)N1CCn2c1nc1ccccc12)C(=O)NC1CCCCC1,-1.62
15,CCc1ccc(OCC(=O)NC(=S)Nc2ccc(S(=O)(=O)NC3CCCCC3)cc2)cc1,19.8
16,O=[N+]([O-])c1ccc(Cl)c(S(=O)(=O)Nc2ccc(-c3ccc(N4CCOCC4)nn3)cc2)c1,14.1
17,O=C(O)CN1C(=O)/C(=C\c2cc([N+](=O)[O-])ccc2OCc2ccccc2Cl)SC1=S,20
18,CCOC(=O)CC1C(=O)NCCN1S(=O)(=O)c1ccc(F)cc1 (centres unmarked),2.94
19,COc1cc(C(=O)N/C(=C\c2cn(C)c3ccccc23)C(=O)NCCN2CCOCC2)cc(OC)c1OC,16.7
20,CC(=O)Nc1c(-c2ccc3ccccc3c2)nc2ccccn12,4.13
21,CCOC(=O)C1CCCN(c2cc(C)nc3cc(-c4ccc(F)cc4)nn23)C1 (centres unmarked),5.1
22,Clc1cc(Br)ccc1OCCN1CCOCC1.O=C(O)C(=O)O,8.04
23,CC(C)(C)NC(=O)C(c1ccc(O)cc1)N(C(=O)CCC(=O)Nc1ccccn1)c1ccc(F)cc1 (centres unmarked),16.3

row,SMILES,"hERG current change (%, negative = inhibition) at 1uM [%]"
1,Cc1ccc(N2C(=O)CC(n3ccnc3)C2=O)cc1C (centres unmarked),-3.17
2,O=C(CC1C(=O)NCCN1C(=O)Nc1ccc(F)cc1F)Nc1ccc(F)cc1 (centres unmarked),20.2
3,COc1ccc(C(=O)Nc2ccc3c(c2)CCCN3C(=O)c2cccs2)c(OC)c1,4.76
4,O=C(C1CCCN(S(=O)(=O)c2cccc3nsnc23)C1)N1CC=C(c2ccccc2)CC1 (centres unmarked),-10.1
5,Cc1ccc(S(=O)(=O)N(C)C)cc1NC(=O)c1ccncc1,7.19
6,O=C(CCn1nnc2ccccc21)N1CCC(O)(c2cccc(F)c2)CC1,10.5
7,O=C(NC1=NCCS1)c1ccc(Cl)c(S(=O)(=O)N2CCOCC2)c1,17.4
8,COc1ccc(-n2c(-c3ccccc3)nnc2-c2ccc(Cl)cc2)cc1,5.53
9,COc1ccc(-n2ncc3c(NCc4cccnc4)ncnc32)cc1,2.06
10,COc1ccc(C(=O)NNC(=O)COc2ccc(Cl)cc2C)cc1S(=O)(=O)N1CCOCC1,-11.1
11,COc1cccc(OC)c1CN(C)C(=O)c1cnccc1C(F)(F)F,9.21
12,CCc1c(C)nc2ncnn2c1Nc1ccccc1C,4.45
13,OCc1cc(C(O)CNCCCCCCOCCCCc2ccccc2)ccc1O (centres unmarked),-16.8
14,CC1(O)c2ccccc2C(=O)N1CCc1ccccc1F (centres unmarked),0.432
15,COc1ccc(C(=O)Nc2ccc(C(=O)OCC(=O)c3cccc4ccccc34)cc2)cc1,9.13
16,Cc1c(C(=O)N2CCCC2)oc2c1-c1nn(CC(=O)NCCCN3CCCCC3)cc1CC2,17.6
17,COc1ccc(CNC(=O)COC(=O)c2cccs2)cc1,11.6
18,Cc1cc(C)n(CCNC(=O)CC2C(=O)NCCN2Cc2ccccc2C(F)(F)F)n1 (centres unmarked),12.4
19,COc1ccc(S(=O)(=O)N2CCN(CC(=O)Nc3ccccc3OC)CC2)cc1,4.98
20,C/C=C/COC(=O)c1[nH]c2c(c1C)C(=O)CC(c1ccco1)C2 (centres unmarked),2.64
21,COc1ccc(CCNC(=O)CSc2nccc(=O)[nH]2)cc1OC,15.2
22,CC(C)CCn1c(=O)c(C(=O)NCc2ccco2)c(O)c2ccccc21,16
23,COc1cccc(NC(=O)CN(C)S(=O)(=O)c2ccc3c(c2)NC(=O)CS3)c1,5.86

row,SMILES,"hERG current change (%, negative = inhibition) at 1uM [%]"
1,O=C(N/N=C\c1cc2c(cc1Cl)OCO2)c1ccc(Br)s1,11.1
2,CCOC(=O)c1ccccc1NC(=O)c1c(F)c(F)c(F)c(F)c1F,16.3
3,Cc1ccc2[nH]c(=O)c(-c3nc4c(C)cccn4c3NCc3ccco3)cc2c1,10.7
4,CC(C)OC(=O)CC1=NC(=O)CS1,11.8
5,N#CCSc1nnc(C2CCCCC2)n1-c1ccccc1,13.6
6,CCOC(=O)C(C)n1cnc2sc3c(c2c1=O)CCC3 (centres unmarked),3.97
7,CC1(C)CC(NS(=O)(=O)c2ccccc2)CC(C)(C)N1,3.34
8,CC(C)=CCN1CCN(Cc2c(C)nn(C)c2Cl)CC1CCO (centres unmarked),1.23
9,CN(C)CC(C)(C)CNC(=S)Nc1cc(S(=O)(=O)N2CCOCC2)ccc1Cl,5.81
10,S=c1[nH]nc(-c2ccco2)n1/N=C/c1ccccc1,13.2
11,CCN(CC)c1ccc2cc(NC(=O)CCC(=O)O)c(=O)oc2c1,16.4
12,COc1ccc(NC(C)=O)cc1C,3.41
13,Cc1ccc(NC(=O)CCNC(=O)c2ccco2)cc1F,9.22
14,Nc1c2c3c(sc2nc(=O)n1N)CCCC3,15.3
15,CCn1c(-c2cc(-c3cc(C)ccc3C)nc3ccccc23)n[nH]c1=S,8.52
16,O=[N+]([O-])c1cccnc1Sc1n[nH]c(-c2ccc(Cl)cc2)n1,12.1
17,CNC(=S)N1CCN(CCN=Cc2c(O)n(-c3ccc(C)cc3)c(=S)[nH]c2=O)CC1,14.8
18,O=C(NCCOCc1ccc(Cl)cc1)c1ncn[nH]1,13.6
19,CC12CCC(C(=O)N3CCN(c4ncccn4)CC3)(c3nc4ccccc4nc31)C2(C)C (centres unmarked),6.71
20,CN1C(=O)CC(c2ccccc2)CC1=O,13.3
21,O=C(NCC(=O)N1CCOCC1)c1ccccc1,15.7
22,Cc1ccc(S(=O)(=O)Nc2ccc3nc(C)sc3c2)cc1,17.1
23,N#CCSc1nnc(SCC#N)s1,11.6

row,SMILES,"hERG current change (%, negative = inhibition) at 1uM [%]"
1,O=C(Cc1cccs1)Nc1ccccc1F,6.26
2,Cc1ccccc1NC(=O)CCCSc1nc2ccccc2s1,6.68
3,O=[N+]([O-])c1ccc2nc(-c3ccccn3)[nH]c2c1,15.8
4,O=[N+]([O-])c1ccc(-c2c(-c3ccccc3)ncc3ccc(F)cc23)cc1,-0.962
5,COc1ccc(OC)c(-c2cc(C(=O)NCc3ccc(Cl)cc3)no2)c1,12.1
6,CCOc1ccc(S(=O)(=O)N2CCN(Cc3ccc4c(c3)OCO4)CC2)cc1Cl,5.35
7,CCCC(=O)N1CC(=O)Nc2ccc(C)cc2C1c1ccccc1 (centres unmarked),12.9
8,COc1ccc(Oc2ncnc3c2oc2ccc(Br)cc23)cc1,17.7
9,C/C(=N\OC(=O)c1ccc(C)cc1)c1sc(C)nc1C,-18.1
10,O=C(Nc1ccccc1C(F)(F)F)c1ccc(CN2CCC(Cc3ccccc3)CC2)cc1,-0.909
11,CCC(O)C(C)(C)C (centres unmarked),7.45
12,COc1cc(-c2nnc(SCC(=O)OC3CCCCC3)o2)cc(OC)c1OC,5.51
13,CCCCCNc1nc(N2CCCC2)c2c(c1C#N)CCN(C)C2,-32.1
14,COc1cc(S(=O)(=O)N(Cc2cccnc2)Cc2ccco2)ccc1-n1cnnn1,-10.7
15,Cc1ccc(N2CC(C(=O)NCc3cccs3)CC2=O)cc1C (centres unmarked),3.86
16,CC(=O)Nc1cc2c(cc1NC(=O)Cn1nnc(-c3ccc(C)o3)n1)OCCO2,10
17,COc1cccc(OC)c1CN1CCCC(C(=O)c2ccccc2SC)C1 (centres unmarked),-37.8
18,CC(c1nnc(SCC(=O)Nc2cccnc2Cl)n1-c1ccccc1)N(C)C (centres unmarked),11.4
19,COc1ccccc1C(=O)Nc1ccc(-c2nnn(CC(=O)N3CCOCC3)n2)cc1,12.3
20,Cc1ccc(-c2noc(COC(=O)c3ccco3)n2)cc1,3.59
